The other results are listed elsewhere or left out.
B1: chr13:100193591:100193592:-_ENSMUSG00000052727_ENSMUST00000064762|mus_hu|FALSE|FALSE (ssRNA)
RNA: GGGAGUUCUACAGUCCGACGAUCUUUAAACCCUCAUCAUAGUUAGCAGUGCAAAACAUAGACUUAUCAGACAAAAAUCAACUAAAAUGUUAAUUUUGAAAUAAAUAACUAACAUAGAAAAUAAAAUGAGGUCAUUGUUCUCUACAACAGAGGAUUGAGCAUCA
B2: chr1:182352875:182352876:-_ENSG00000135821_ENST00000339526|hu_mus|motif|central (ssRNA)
RNA: GGGAGUUCUACAGUCCGACGAUCAUCCACACAUCCAUAUAUAUAUAACUUUUUUGUUUUUAACAUUUAAAUAUAAAAAUACGGCUCUGCUUUGUGUUAUGAACGGAGGACCAAGAAAUGCCAACUUUUUUCUUCCUUCACAGUCAACAGAGGAUUGAGCAUCA
B3: chr19:8913615:8913616:-_ENSMUSG00000071658_ENSMUST00000096259|mus_hu|mus_mus_mus_hu_False|18_98 (ssRNA)
RNA: GGGAGUUCUACAGUCCGACGAUCAGGGUACCAAAACACCCUGCCUCAAAUGGGUGCCCCACCCAGUAGGGAGUUGCAGCUGAAAGUAUCUGAUGCAGAAGCAGUGACUAUACGAAAGGUCACUAGAGGGGAGGGCCAGGCCAGCAACAGAGGAUUGAGCAUCA
B4: chr11:20585787:20585788:-_ENSMUSG00000049659_ENSMUST00000146722|mus_hu|FALSE|FALSE (ssRNA)
RNA: GGGAGUUCUACAGUCCGACGAUCUUUUUUUUAUUUCAAAAGUUUUGUAAGAAGGACACCACCAGUGUAUUUCACAAAGACAUAAAUGUAUACACCCCAGCAACACAAAAAGAAUAAAUCUUCAAAAAUGUUUACCCCCGAUUACAACAGAGGAUUGAGCAUCA
B5: chr16:94690093:94690094:+_ENSMUSG00000040785_ENSMUST00000117648|mus_hu|mus_mus_mus_hu_True|68_88 (ssRNA)
RNA: GGGAGUUCUACAGUCCGACGAUCGGGCUGGGAUGACGGACACACAGAUCUUCCCAGAGGGGGAAAAAAAAAUAGCCGAUACUAAUUAAAAAGUGUUAAUGAUUUUUGAAAAUCAGAUUACAUCUAUAAAAGAUGAAAAGCAAACAACAGAGGAUUGAGCAUCA
B6: 35146396_35147158_940_CDS_ENSMUSG00000029104_ENSMUST00000080036|mouse|control|control (ssRNA)
RNA: GGGAGUUCUACAGUCCGACGAUCCAGCAGACCUAGGAGGACAUUAAGGAGCCAGUUGUAGAAGUACUGUGUCCUCCUAGAAUGUUGGCAGAUGCUCACGGCUGAGCCGGCUGCUGUCCGCCGCACGGUGGGAGAGCUUGACUUCAACAGAGGAUUGAGCAUCA
B7: chr17:65930154:65930155:-_ENSMUSG00000024091_ENSMUST00000024897|mus_hu|motif|central (ssRNA)
RNA: GGGAGUUCUACAGUCCGACGAUCGGUGACAUUAUCUCUGAAGGAUGCAGUUGAGGUUGAUCCAGGUUUAUCCGAAUGUGCGGCCUUUCUGAGCCUUAAACCUUCAUCUCUCAGGUGCCGAUUUUCUUCUGAUAGCUUCAUCAUCAACAGAGGAUUGAGCAUCA
B8: chr19:47610742:47610743:-_ENSMUSG00000042694_ENSMUST00000049369|mus_hu|motif|central (ssRNA)
RNA: GGGAGUUCUACAGUCCGACGAUCUGGCACCUGGCGGGACUCCUUCAUGUCCAGGAUAUCCCUGAUGUAGAGUUUUGCAAAGGCGGGAAACACAGGAUCCAAACCCCACAAGAGGGAAGGGGUCUCCUCUUCACACCGGCUGGACAACAGAGGAUUGAGCAUCA
B9: chr6:40426449:40426450:+_ENSMUSG00000029911_ENSMUST00000121360|perfect_dup|FALSE|FALSE (ssRNA)
RNA: GGGAGUUCUACAGUCCGACGAUCGACAUCACCCAGUUGGUAAACUUCACUAUCCCCUGAUCGCCACAUCUCAUUAGUUGCUAGAGAAAAUAUUGUGACUGGAUUUUUUCCUUCCACCUGUCUCAAGACAGGGUCCUGACCCACCAACAGAGGAUUGAGCAUCA
B10: 44635006_44636950_5628_CDS_ENSMUSG00000002028_ENSMUST00000002095|mouse|control|control (ssRNA)
RNA: GGGAGUUCUACAGUCCGACGAUCCUCAUUUUGGCCAAUGUACAGCAAACGGCCAGCAUCAUUAGCACUGUCAUCGCCGUACAUCAGACACAGUGCACACUGUCGGUUGUCAUCGAUGCCUGGGGGUGGAUUCAGCUCUGGACUCAACAGAGGAUUGAGCAUCA
B11: chr22:19452774:19452775:-_ENSG00000070010_ENST00000399523|hu_hu|hu_hu_hu_mus_False|68_98 (ssRNA)
RNA: GGGAGUUCUACAGUCCGACGAUCCUUCUCAUUGUAGUUGAUGGCAAUCACAUCUCCAGUCGUCAGACAGGCAAAGUUUCUCAAUGCAUUUUCUAAUACCGCUUUAGGGUUGGUAAUAUCCAGGAAGUCUGGGCUCUGAGGCUGCAACAGAGGAUUGAGCAUCA
B12: chr18:9122563:9122564:+_ENSG00000178127_ENST00000318388|hu_mus|motif|central (ssRNA)
RNA: GGGAGUUCUACAGUCCGACGAUCGACCUGGAUAUGGUACUUCCCAACUGGCUUUCGAUUAUACAUUGUAUAAAAAGUUGCGGCUUCAUAUACUCUCAUUGGAGGUACUUGUAAAACUUCAGCCACCUUGUUCAUAGCGGAGAUCAACAGAGGAUUGAGCAUCA
B13: chr7:99593754:99593755:+_ENSMUSG00000052572_ENSMUST00000098308|mus_mus|motif|central (ssRNA)
RNA: GGGAGUUCUACAGUCCGACGAUCCUUUAGUGCCUUCUUUCAGCUUAUAAAUGGCAAAAUAGACAAUUGACAGCCAUAAAGCGGGGCCAGGUGGAAUCUCCUCCUCUCUAAGGUUAGUCCUCCACACAGGACACACUUGUCUUUCAACAGAGGAUUGAGCAUCA
B14: chr4:144460044:144460045:+_ENSG00000153147_ENST00000283131|hu_mus|hu_hu_hu_mus_False|68_78 (ssRNA)
RNA: GGGAGUUCUACAGUCCGACGAUCACGGUCCAUAGCCUGAAGAUCAACUUGCGGAUUCCAAUCAGAAUCAUACAAAAUGACUACAUCAGCAGUUGCAAGAUUGAUGCCCAGACCACCAGCACGUGUGCUUAGCAUAAAUACAAACAACAGAGGAUUGAGCAUCA

These binders were tested against T1, UNK ZnF1-3 (human, UniProt Q9C0B0 31-174) (assay: nsRBNS (natural sequence RNA bind-n-seq); RBNS binding buffer (assumed for nsRBNS): 25 mM Tris pH 7.5, 150 mM KCl, 3 mM MgCl2, 0.01% Triton X-100, 500 ug/ml BSA, 20 U/ml SUPERase-In, 4 C; UNK is unkempt and MSI1 is Musashi-1; names of the RNAs are library labels; protein concentration not given here; high values mean tight binding).
T1 sequence: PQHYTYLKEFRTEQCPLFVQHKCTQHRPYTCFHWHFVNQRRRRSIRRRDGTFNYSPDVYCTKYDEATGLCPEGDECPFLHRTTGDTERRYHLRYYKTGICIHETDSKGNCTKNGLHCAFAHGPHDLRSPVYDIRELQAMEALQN
Binder B1 has a binding signal of 1.73 enrichment R. B2 showed a binding signal of 2.07 enrichment R. B3 gave a binding signal of 1.33 enrichment R. With B4 the binding signal was 1.87 enrichment R. B5 was tested, and the binding signal was 2.59 enrichment R. With B6 the binding signal was 0.515 enrichment R. In the case of B7, the binding signal is reported as 0.429 enrichment R. With B8 the binding signal was 0.811 enrichment R. B9 gave a binding signal of 1.13 enrichment R. In the case of B10, the binding signal is reported as 0.448 enrichment R. B11 showed a binding signal of 1.03 enrichment R. Binder B12 has a binding signal of 0.954 enrichment R. B13 showed a binding signal of 1.16 enrichment R. Work on B14 yielded a binding signal of 1.35 enrichment R.
